# PubChem BioAssay AID2451 (National Center for Advancing Translational Sciences (NCATS), 2010)
# Among all 290,000 compounds or so, about 2,100 (0.72%) were called active. Inconclusive results, whose numbers are uncertain, are shown with a selection of clear calls. The call rests on the fitted dose curve; in most records, active means well fitted inhibition curve with a large enough effect; inconclusive means small, poorly fitted or top-dose-only effect, or effect the other way; inactive means flat fitted curve, though single readings scatter. Potencies beside an inconclusive call are fits to weak or partial responses and may not hold up.
# Biological target: Fructose-bisphosphate aldolase (Giardia intestinalis (strain ATCC 50803 / WB clone C6)) (UniProt A8B2U2)
# Chain of UniProt A8B2U2 (A8B2U2 whole entry, looked up): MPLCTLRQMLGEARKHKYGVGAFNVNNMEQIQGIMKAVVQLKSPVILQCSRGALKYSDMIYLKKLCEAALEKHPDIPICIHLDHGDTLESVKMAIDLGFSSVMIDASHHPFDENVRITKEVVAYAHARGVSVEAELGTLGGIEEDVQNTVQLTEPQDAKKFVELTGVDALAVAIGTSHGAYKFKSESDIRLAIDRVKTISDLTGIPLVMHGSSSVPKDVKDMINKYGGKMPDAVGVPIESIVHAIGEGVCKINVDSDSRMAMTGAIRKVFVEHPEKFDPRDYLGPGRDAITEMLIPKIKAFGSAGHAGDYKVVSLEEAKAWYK
# Assay: qHTS Assay for Inhibitors of Fructose-1,6-bisphosphate Aldolase from Giardia Lamblia; further: nearly all actives have a fitted effect of over 55% in size
# Conditions: purified Giardia FBPA; activity, negative = inhibition: at 59.6 µM (top of the series) unless noted
# Summary of the method: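 40 nM FBPA preincubated 10 min at RT with compound (up to 57.5 uM final), then substrate plus GAPDH/TPI/NAD/arsenate coupling and diaphorase/resazurin added. Fluorescence read after 20 min at RT, 525/598 nm.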
# On the % scale 0 is the no-effect control and ±100 the full control effect; potency means the concentration at half of the fitted maximal effect; tags describe the fitted curve by direction and shape.
SMILES,Potency,"activity, negative = inhibition"
N[C@H](CCC(=O)N[C@H](CSN=O)C(=O)NCC(=O)O)C(=O)O,"inconclusive: 15.8 µM [inhibitor, partial curve]",
CC(=O)c1c(C)[nH]c(-c2ccccc2)nc1=S,"inconclusive: 3.97 µM [inhibitor, partial curve]",
COCCn1nnnc1C(c1ccc(OC)cc1OC)N1CCN(c2ccccc2)CC1 (stereo unspecified),"inconclusive: 31.5 µM [inhibitor, single point]",
Cc1csc(NC(=O)CSc2nc(=O)cc(N)n2-c2ccc(F)cc2)n1,"inconclusive: 28.2 µM [inhibitor, partial curve]",
COc1ccc2[nH]c(C)c(CCN(Cc3cccs3)C(=S)Nc3ccc(F)cc3)c2c1,"inconclusive: 15.8 µM [inhibitor, single point]",
C=CCc1ccccc1OCC(=O)N/N=C/c1ccccc1OCC,"inconclusive: 12.6 µM [inhibitor, partial curve]",
CCOC(=O)CCSc1n[nH]c(=S)s1,"inconclusive: 15.8 µM [inhibitor, partial curve]",
C=CCNC(=O)CSc1nnc(-c2ccccc2Br)n1-c1cccc(C(F)(F)F)c1,"inconclusive: 17.7 µM [inhibitor, single point]",
COc1ccc(-c2cc(C(F)(F)F)nc(SCc3cccc(C(=O)O)c3)n2)cc1,"inconclusive: 17.7 µM [activator, single point]",
COc1ccc(NC(=O)/C(=C\c2ccc3c(c2)OCO3)NC(C)=O)cc1,inactive,
CCOC(=O)CC(=O)CSC1=C(C#N)C(c2ccccc2OC)CC(=O)N1 (stereo unspecified),"inconclusive: 5.61 µM [inhibitor, full curve, poor fit]",
O=C(NC(=S)Nc1ccc(C(=O)N2CCOCC2)cc1)c1ccc([N+](=O)[O-])cc1,"inconclusive: 17.7 µM [inhibitor, partial curve]",
COc1cc(/C=C(\C#N)C(=O)NCCc2ccccc2)cc(OC)c1O,"inconclusive: 19.9 µM [inhibitor, partial curve]",
Cc1ccc(N(CC(=O)NC2CCCCC2)C(=O)c2ccc(C)s2)cc1,inactive,
Cc1c(/C(O)=C2/C(=O)C(=O)N(CCN3CCOCC3)C2c2ccccn2)cnn1-c1ccccc1 (stereo unspecified),"inconclusive: 17.7 µM [inhibitor, partial curve]",
Cc1ccc2c(CN3CCOCC3)cc(=O)oc2c1,inactive,
CC(=O)Oc1cc(-c2coc3cc(OC(C)=O)c(OC(C)=O)c(OC(C)=O)c3c2=O)cc(OC(C)=O)c1OC(C)=O,active: 5.61 µM,
CC1(C)Cc2c(sc(N)c2C#N)C(C)(C)N1,"inconclusive: 22.3 µM [inhibitor, single point]",
CCOC(=O)c1ccc(NC(=O)c2cn(CCC#N)nc2-c2ccc3c(c2)OCCO3)cc1,inactive,
Cc1ccccc1CN1CCN(CC2CC3C=CC2C3)CC1 (stereo unspecified),"inconclusive: 15.8 µM [inhibitor, partial curve]",
CC12CCC3C(CC=C4CC(O)CCC43C)C1C/C(=C\N1CCCC1)C2=O (stereo unspecified),inactive,
O=c1cc(-c2ccc(O)c(O)c2)oc2ccccc12,"inconclusive: 15.8 µM [inhibitor, partial curve]",
CCOc1ccc(CNCCCSc2ncccn2)cc1OC,"inconclusive: 28.2 µM [inhibitor, partial curve]",

SMILES,Potency,"activity, negative = inhibition"
CCOP(=S)(OCC)SCSc1ccc(Cl)cc1,"inconclusive: 15.8 µM [inhibitor, partial curve]",
CN(C)S(=O)(=O)c1cccc(C(=O)NC(=S)N(CCC#N)Cc2cccnc2)c1,active: 5.61 µM,
c1ccc(-c2cnc(CSc3nnc4ccccn34)o2)cc1,"inconclusive: 17.7 µM [inhibitor, partial curve]",
CCOc1ccc(N=NC2C(=O)N(C(N)=S)N=C2C)cc1 (stereo unspecified),"inconclusive: 31.6 µM [activator, partial curve]",
O=C(Nc1nc(-c2ccccn2)cs1)c1ccccc1-n1cnnn1,active: 7.92 µM,
CCS(=O)(=O)N1Cc2ccccc2CC1C(=O)OCC(=O)N(C(C)C)C(C)C (stereo unspecified),inactive,
CN(N=O)c1ccc(O)c(O)c1,"inconclusive: 15.8 µM [inhibitor, single point]",
CSc1n[nH]c(-c2ccc(C(F)(F)F)cc2)n1,inactive,
Cn1ccc(C(=O)NC(=S)N2CCSCC2)n1,"inconclusive: 19.9 µM [inhibitor, partial curve]",
CC(=O)Nc1ccc(S(=O)(=O)N2CCSC2C(=O)O)cc1 (stereo unspecified),inactive,
CC(=O)N1N=C(c2c(O)n(C)c(=O)n(C)c2=O)CC1c1ccccc1 (stereo unspecified),"inconclusive: 19.9 µM [inhibitor, single point]",
O=C(c1cccc(F)c1)N1CCN(Cc2c[nH]c3ccccc23)CC1,"inconclusive: 17.7 µM [inhibitor, partial curve]",
O=C1NC(=O)c2cc(Br)cc3cccc1c23,inactive,
O=C(NCCN1CCOCC1)c1cc(-c2ccc(F)cc2)on1,inactive,
Nc1ccc(Br)c2cccnc12,"inconclusive: 12.6 µM [inhibitor, partial curve]",
C=CCn1c(NC(=O)c2ccco2)c(S(=O)(=O)c2ccccc2)c2nc3ccccc3nc21,"inconclusive: 12.6 µM [inhibitor, partial curve]",
Cc1ccc(N(C)C(=O)CCS(=O)(=O)c2ccc3c(c2)oc(=O)n3C)cc1,,inconclusive: 67.3% [activator]
O=C(O)CCC(=O)Nc1ccc(N2CCCCCC2)cc1,"inconclusive: 7.06 µM [inhibitor, full curve]",
CC(=O)Nc1ccc(CN2CCCN(C)CC2)cc1,"inconclusive: 28.2 µM [inhibitor, partial curve]",
CCN(CC)CCNc1ncnc2c1sc1nc(N3CCOCC3)c3c(c12)CC(C)(C)SC3,inactive,
COc1cccc(NC(=S)NC(=O)c2cccnc2)c1,active: 3.55 µM,
CCc1cccc(C)c1NC(=S)N1CCCC1C(=O)O (stereo unspecified),"inconclusive: 17.7 µM [inhibitor, single point]",
CCOC(=O)c1ccc(NC(=O)Nc2ccc(S(N)(=O)=O)cc2)cc1,inactive,
